From patent US5464820A, “Specific inhibitors of tissue kallikrein” (priority 1993, dated 1995)
Values joined by “and” are separate entries in the source; they are usually repeats but may differ in a detail not shown here. Identical values can stand only once. Like-named read-outs stand apart in the source and are kept apart here. At least one peptide structure holds a part that was inferred or is arguable (an end, a ring closure or a residue). Some entries repeat one wording, which the source may state once for all of them. For some assays here: At least one structure is not confirmed: it was looked up by name or label, or the drawing left a doubt. Starred links: 1 amine or outer side, 2 acyl side, 3 side chain; linkers in the order of their positions; H or OH if unused. Non-standard residues stand in square brackets, D forms with d. Residues, ends and D or L forms follow the SMILES beside them. X1 = Nc1ccc(CC[C@H](N[*:1])C(=O)[*:2])cc1; Phe(3-F) = N[C@@H](Cc1cccc(F)c1)C(=O)O; 3Pal = N[C@@H](Cc1cccnc1)C(=O)O

Columns and labels:
[1] = target: T1, human urinary kallikrein (HUK) (Homo sapiens, UniProt P06870); assay: Inhibition of human urinary (tissue) kallikrein (KI); format: biochemical; conditions: Table 4, Pro-X-Arg-Ser-Val-Gln
T1 construct: Human urinary kallikrein (HUK) was purified from human urine; from tissue
T1 sequence (P06870 25-262): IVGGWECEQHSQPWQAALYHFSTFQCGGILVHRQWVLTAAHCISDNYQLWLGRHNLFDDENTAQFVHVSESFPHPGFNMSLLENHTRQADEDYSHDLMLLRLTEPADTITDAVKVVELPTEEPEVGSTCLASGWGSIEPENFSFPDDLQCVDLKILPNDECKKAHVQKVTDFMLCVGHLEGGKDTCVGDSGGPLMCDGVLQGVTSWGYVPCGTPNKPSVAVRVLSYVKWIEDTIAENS
Description: Human urinary kallikrein (HUK) was purified from human urine. Briefly, urine was subjected to ultrafiltration to concentrate the protein components which were applied to approtinin-CH-Sepharose affinity columns. Active fractions from these columns were next applied to Sephadex G-100 gel filtration and collected as fractions. The pH of each fraction was determined immediately upon elution, and the fraction was neutralized by addition of 2.0 ml of 2M Tris-HCL buffer, pH 8.0. Porcine pancreatic 24-kallikrein (PPK), at 50 units/mg protein; 1.0 units hydrolyses 1.0 μM BAEE (benzoyl -L-arginine ethyl ester) to N-a-benzoyl-L-arginine/minute at pH 8.7 at 25° C., was purchased from Sigma Chemical Company (St. Louis, Mo.). […] All other enzymes were purchased from Sigma Chemical Company (St. Louis, Mo.).
Dixon plots were used for data reduction and for calculation of […].
Assay methods were based on the cleavage of chromogenic substrate S-2266 (D-Val-Leu-Arg-pNA) (Kabi; Charlotte, N.C.) by porcine pancreatic kallikrein (Sigma Chemical Company; St. Louis, Mo.) to yield an increase in absorbance at 405 nm. […] Changes in the absorbance at 405 nm in an array of wells were recorded. […]

[2] = target: human plasma kallikrein (HPK) (Homo sapiens, UniProt P03952); assay: Inhibition of human plasma kallikrein (KI); format: biochemical
Sequence of human plasma kallikrein (HPK) (P03952 20-638): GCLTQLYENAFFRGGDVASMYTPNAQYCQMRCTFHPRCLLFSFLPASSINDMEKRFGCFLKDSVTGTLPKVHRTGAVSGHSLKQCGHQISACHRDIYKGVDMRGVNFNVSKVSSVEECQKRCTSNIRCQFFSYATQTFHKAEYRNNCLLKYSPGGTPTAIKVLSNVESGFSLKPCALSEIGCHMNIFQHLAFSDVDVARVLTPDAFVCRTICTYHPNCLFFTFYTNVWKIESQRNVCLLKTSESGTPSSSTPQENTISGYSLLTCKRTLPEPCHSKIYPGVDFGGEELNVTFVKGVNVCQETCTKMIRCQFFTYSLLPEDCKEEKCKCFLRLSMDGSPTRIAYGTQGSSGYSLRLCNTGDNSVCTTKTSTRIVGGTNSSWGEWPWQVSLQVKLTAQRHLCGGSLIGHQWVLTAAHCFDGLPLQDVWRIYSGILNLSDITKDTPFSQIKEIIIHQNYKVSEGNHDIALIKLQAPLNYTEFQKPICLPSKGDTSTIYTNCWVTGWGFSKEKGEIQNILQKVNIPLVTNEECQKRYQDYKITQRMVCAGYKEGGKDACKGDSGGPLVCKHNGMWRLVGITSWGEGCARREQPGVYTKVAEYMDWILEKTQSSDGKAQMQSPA
From the text: (§1) Assay methods were based on the cleavage of chromogenic substrate S-2266 (D-Val-Leu-Arg-pNA) (Kabi; Charlotte, N.C.) by porcine pancreatic kallikrein (Sigma Chemical Company; St. Louis, Mo.) to yield an increase in absorbance at 405 nm. By changing the substrate and enzyme, the general method has been extended to measure the inhibition of human tissue kallikrein (HTK or human urinary kallikrein HUK), human plasma kallikrein (HPK), plasmin, and urokinase (UK). In all assays, the robot dilutes the inhibitor into a series of wells and adds substrate and buffer. Chromogenic reactions are started by the addition of enzyme. Changes in the absorbance at 405 nm in an array of wells were recorded. All manipulations were performed by the instrument from reservoirs containing substrate, inhibitor, diluent (water), buffer, or enzyme.

[3] = target: porcine pancreatic kallikrein (PPK) (Sus scrofa, UniProt P00752); assay: Inhibition of porcine pancreatic kallikrein, cleavage of chromogenic substrate S-2266 (KI); format: biochemical
Sequence of porcine pancreatic kallikrein (PPK) (P00752 8-87 limits assumed): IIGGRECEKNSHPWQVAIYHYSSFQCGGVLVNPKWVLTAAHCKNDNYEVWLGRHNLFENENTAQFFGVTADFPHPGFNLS
Sequence of porcine pancreatic kallikrein (PPK) (P00752 95-246 limits assumed): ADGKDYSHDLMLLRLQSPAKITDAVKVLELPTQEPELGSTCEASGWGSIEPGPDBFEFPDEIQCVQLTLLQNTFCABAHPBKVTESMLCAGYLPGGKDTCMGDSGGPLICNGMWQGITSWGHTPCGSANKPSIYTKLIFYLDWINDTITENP

urokinase (UK) = target: T2, urokinase (UK) (Homo sapiens, UniProt P00749); assay: Inhibition of urokinase (KI); format: biochemical; conditions: Table 7; read-out: K1 UK
T2 construct: purchased Sigma Chemical Company (St. Louis, Mo.)
From the text: as §1

[4] = Measured lipophilicity (KO/W); format: physicochemical; conditions: Table 2, measured lipophilicity, change relative to Gly analog
From the text: Listed in Table 2 are KI values along with changes in volume (ΔV), measured lipophilicity (ΔKO/W), and calculated lipophilicity (ΔCLOGP). Some of the substrates containing a D-amino acid residue at P3 are rapidly hydrolyzed by tissue kallikrein. To overcome this problem, a new method was also used to determine KI (see Example 6).

[5] = Table 4, Pro-X-Arg-Ser-Val-Gln, read-out: KI HPK
[6] = Table 7, in mM, read-out: K1 HPK
[7] = Table 7, in mM, read-out: K1 PPK

CC(C)[C@H](NC(=O)[C@H](CO)NC(=O)[C@H](CCCNC(=N)N)NC(=O)[C@H](Cc1cccc(F)c1)NC(=O)[C@@H]1CCCN1)C(=O)N[C@@H](CCC(N)=O)C(N)=O [KCH-9] (H-P[Phe(3-F)]RSVQ-NH2)
Ki [1]: 73 µM | Ki [2, 5]: 0.443 mM | specificity for tissue kallikrein over plasma kallikrein ([3]; P2 substitutions, Table 4): some specificity for tissue kallikrein over plasma kallikrein | Ki ([3]; Table 4, Pro-X-Arg-Ser-Val-Gln, read-out: KI PPK): 0.158 mM

CC(C)[C@H](NC(=O)[C@H](CO)NC(=O)[C@H](CCCNC(=N)N)NC(=O)[C@H](Cc1ccccc1)NC(=O)[C@@H]1CCCN1)C(=O)N[C@@H](CCC(N)=O)C(N)=O [KIDZ-1, Pro-Phe-Arg-Ser-Val-Gln] (H-PFRSVQ-NH2)
Ki (urokinase (UK)): > 20000 µM | Ki ([2]; Table 7, read-out: K1 HPK): 0.116 mM | Ki ([3]; Table 7, read-out: K1 PPK): 0.023 mM

CC(C)[C@H](NC(=O)[C@H](CO)NC(=O)[C@H](CCc1ccc(N)cc1)NC(=O)[C@H](Cc1ccccc1)NC(=O)[C@@H]1CCCN1)C(=O)N[C@@H](CCC(N)=O)C(N)=O [KIDZ-9, Pro-Phe-hAph-Ser-Val-Gln] (H-PF[X1]SVQ-NH2; N-terminus assumed)
Ki (urokinase (UK)): > 20000 µM | Ki [2, 6]: 5 mM | Ki [3, 7]: > 1 mM

CC(C)[C@H](NC(=O)[C@H](CO)NC(=O)[C@H](Cc1cccnc1)NC(=O)[C@H](Cc1ccccc1)NC(=O)[C@@H]1CCCN1)C(=O)N[C@@H](CCC(N)=O)C(N)=O [KIDZ-10, Pro-Phe-Pal-Ser-Val-Gln] (H-PF[3Pal]SVQ-NH2; N-terminus assumed)
Ki (urokinase (UK)): > 20000 µM | Ki [2, 6]: > 20 mM | Ki [3, 7]: > 1 mM

CC(C)[C@H](NC(=O)[C@H](CO)NC(=O)[C@H](CCCNC(=N)N)NC(=O)[C@H](Cc1ccccc1)NC(=O)[C@@H]1CCCN1)C(=O)N[C@@H](CCC(N)=O)C(N)=O [KKI-90, Pro-Phe-Arg-Ser-Val-Gln] (H-PFRSVQ-NH2)
ΔLog KO/W [4]: 0.16 | Ki [1]: 103 µM and 112 µM | Ki [2, 5]: 0.159 mM | Ki ([3]; text b291, β-PPK, read-out: KI): 0.101 mM
